{"source": "PubChem BioAssay AID485364", "about": "(National Center for Advancing Translational Sciences (NCATS), 2010)", "note": "Hit rate of the full screen: of about 360,000 compounds, about 11,000 (3.1%) were called active. The shares of active, inactive and inconclusive entries below differ from those in the screen. Calls come from the whole dose curve; as a rule, active = well fitted inhibition curve with a large enough effect; inconclusive = small, poorly fitted or top-dose-only effect; inactive = no such curve, though single readings can be large or run the other way. No potency is given beside an inconclusive call; the fits are too rough. Potency is the fitted concentration of half-maximal effect; tags give direction and shape of the fitted curve.", "data": [{"target": "Schistosoma mansoni thioredoxin glutathione reductase (TGR) (UniProt Q962Y6)", "experiment": "qHTS Assay for the Inhibitors of Schistosoma Mansoni Peroxiredoxins; note: nearly all actives have a fitted effect of over 60% in size", "conditions": "purified TGR, DTNB reduction, TNB absorbance 405 nm; series mostly up to 114 µM", "method_in_brief": "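Kinetic colorimetric format: TGR-catalysed, NADPH-driven DTNB reduction monitored via TNB absorbance. Enzyme dispensed at 20 nM; compound exposure 15 min at room temperature before reaction start.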", "values": [{"smiles": "NC(=O)c1cc(-c2ccccc2)sc1NC(=O)CN1CCCCC1", "Potency": "inactive"}, {"smiles": "C=CCn1c(Cc2ccccc2)nc2c(cnn2-c2ccccc2)c1=O", "Potency": "inactive"}, {"smiles": "C#CCOCCOCCOCCNc1nc(N2CCN(C(=O)[C@H](Cc3ccc(O)cc3)n3cc([C@@H](N)C(C)CC)nn3)CC2)nc(N2CCN(C(=O)[C@H](Cc3cc4ccccc4[nH]3)n3cc([C@@H](N)CC(C)C)nn3)CC2)n1", "note": "(some centres undefined)", "Potency": "inconclusive [inhibitor, partial curve]"}, {"smiles": "Cc1cccc(CS(=O)(=O)Cc2ccc(C(=O)NCc3cccs3)o2)c1", "Potency": "active: 35.5 µM"}, {"smiles": "O=C(CC1C(=O)NCCN1CC(c1ccccc1)c1ccccc1)NCCc1cn[nH]c1", "note": "(centres undefined)", "Potency": "inconclusive [inhibitor, partial curve]"}, {"smiles": "COc1ccc(C(=O)Nn2c(CCC(=O)O)ccc2-c2ccc(C)cc2)cc1OC", "Potency": "inconclusive [inhibitor, partial curve]"}, {"smiles": "O=C(NC1CCCCC1)N1CCCC1", "Potency": "inconclusive [inhibitor, single point]"}, {"smiles": "CCOc1cccc(=O)c2c(C)oc(C)c12", "Potency": "inconclusive [inhibitor, partial curve]"}, {"smiles": "COc1ccc(C(CNC(=O)/C=C/c2c(Cl)nc3ccccn23)N(C)C)cc1", "note": "(centres undefined)", "Potency": "inconclusive [inhibitor, partial curve]"}, {"smiles": "O=C(COc1ccccc1[N+](=O)[O-])N1CCN(CCc2ccncc2)CC1", "Potency": "inconclusive [inhibitor, partial curve]"}, {"smiles": "Cc1ccc(S(=O)(=O)Nc2ccccc2C(=O)N2CCCCC2)cc1", "Potency": "inconclusive [inhibitor, single point]"}, {"smiles": "Cc1cc(/C=N/NC(=O)c2ccncc2)c(C)n1-c1cccc(C(F)(F)F)c1", "Potency": "inactive"}, {"smiles": "CC(C)n1cnc(S(=O)(=O)N2CCCC(C(=O)NCc3ccccc3Cl)C2)c1", "note": "(centres undefined)", "Potency": "inactive"}, {"smiles": "CC(C)N1C(=S)N(Cc2ccco2)C(=O)C1CC(=O)Nc1ccccc1", "note": "(centres undefined)", "Potency": "active: 39.8 µM"}, {"smiles": "C=CCSc1nc2c(c(-c3ccsc3)c1C#N)CN(C)CC2", "Potency": "active: 10 µM"}, {"smiles": "Cc1cc(C)c2c(CC(=O)O)c(C)[nH]c2c1", "Potency": "inconclusive [inhibitor, full curve]"}, {"smiles": "Oc1ccc(C=Nc2cccc3ccccc23)c(O)c1", "Potency": "inconclusive [inhibitor, single point]"}, {"smiles": "CCOC(=O)c1cnc(SC2CC(=O)N(c3ccc(OC)c(OC)c3)C2=O)nc1N", "note": "(centres undefined)", "Potency": "inconclusive [inhibitor, partial curve]"}, {"smiles": "COc1ccc(N2CCN(C(=O)COC(=O)COc3cc(C)cc(C)c3)CC2)cc1", "Potency": "inactive"}, {"smiles": "COc1ccc(CN=C(C)c2c(C(F)(F)F)[nH]n(-c3nc4ccccc4s3)c2=O)cc1", "Potency": "inactive"}, {"smiles": "Cc1cccc(C)c1N(CC(=O)N/N=C/c1cc(Br)c(C)o1)S(C)(=O)=O", "Potency": "inconclusive [inhibitor, partial curve]"}, {"smiles": "CC(c1ccccc1)n1c(Cn2ncc3ccccc3c2=O)n[nH]c1=S", "note": "(centres undefined)", "Potency": "inactive"}, {"smiles": "CCOC(=O)CCC(=O)Nc1ccc(S(=O)(=O)Nc2cc(OC)nc(OC)n2)cc1", "Potency": "inconclusive [inhibitor, partial curve, poor fit]"}, {"smiles": "Cc1[nH]c2ccccc2c1C(C[N+](=O)[O-])c1ccco1", "note": "(centres undefined)", "Potency": "active: 22.4 µM"}, {"smiles": "Fc1cccc(NC(=S)NCc2ccc(Cl)cc2)c1", "Potency": "inconclusive [inhibitor, partial curve]"}, {"smiles": "CN1CCc2nc(NC(=O)COc3ccc4ccccc4c3)sc2C1", "Potency": "inconclusive [inhibitor, partial curve]"}, {"smiles": "Cc1ccc(NC(=S)Nc2cccc3cnccc23)cc1C", "Potency": "inconclusive [inhibitor, full curve]"}, {"smiles": "C=CCNC(=O)c1onc(CCl)c1C(=O)OC", "Potency": "inconclusive [inhibitor, partial curve, poor fit]"}, {"smiles": "Cc1[nH]n(-c2ncc(-c3ccccc3)s2)c(=O)c1C(c1ccc(Cl)cc1)C(C#N)C#N", "note": "(centres undefined)", "Potency": "inconclusive [inhibitor, full curve]"}, {"smiles": "O=C(Nc1nnc(S(=O)(=O)N2CCOCC2)s1)c1ccccc1Cl", "Potency": "inconclusive [inhibitor, single point]"}, {"smiles": "O=C(NCc1ccco1)c1cc(NS(=O)(=O)c2cccc([N+](=O)[O-])c2)ccc1O", "Potency": "inconclusive [inhibitor, full curve]"}, {"smiles": "O=C(Nc1nnc(C2CC2)s1)C1COc2ccccc2O1", "note": "(centres undefined)", "Potency": "inconclusive [inhibitor, partial curve]"}, {"smiles": "Cc1[nH][nH]c(=O)c1C(c1ccc(-c2ccc(Cl)c(Cl)c2)o1)c1c(C)[nH][nH]c1=O", "Potency": "active: 39.8 µM"}, {"smiles": "O=C(OCC(=O)N1CCCCC1)c1c[nH]c2ccccc12", "Potency": "inactive"}, {"smiles": "O=C(NC(=S)NN1CCCCC1c1cccnc1)c1ccc(Br)cc1", "note": "(centres undefined)", "Potency": "inconclusive [inhibitor, partial curve]"}, {"smiles": "COc1cc(/C=C(\\C#N)C(=O)Nc2cccc(C(=O)O)c2)ccc1OCc1ccc(Cl)cc1", "Potency": "inactive"}, {"smiles": "NC(=O)CSc1nnc2ccc(-c3ccco3)nn12", "Potency": "inconclusive [inhibitor, partial curve]"}, {"smiles": "C=C1CC[C@H](O)C/C1=C/C=C1\\CCC[C@]2(C)[C@@H]([C@H](C)/C=C/[C@H](C)C(C)C)CC[C@@H]12", "Potency": "inconclusive [inhibitor, partial curve]"}, {"smiles": "CCC1(C(=O)OC)NC(c2ccco2)C2C(=O)N(c3ccc(F)cc3)C(=O)C21", "note": "(centres undefined)", "Potency": "inconclusive [inhibitor, full curve]"}, {"smiles": "O=C(CSc1ccc(-c2ccco2)nn1)c1cccc([N+](=O)[O-])c1", "Potency": "inconclusive [inhibitor, partial curve]"}, {"smiles": "COc1cc(C(=S)N2CCN(c3ccccc3Cl)CC2)cc(O)c1O", "Potency": "inactive"}, {"smiles": "COC(=O)C(CCSC)NC(=O)CNS(=O)(=O)c1ccc(Br)cc1", "note": "(centres undefined)", "Potency": "inconclusive [inhibitor, single point]"}, {"smiles": "CCN(CC)CCNC(=O)c1ccc2c(c1)NC(=O)C(CS(=O)(=O)Cc1cccc(Br)c1)N2", "note": "(centres undefined)", "Potency": "inconclusive [inhibitor, partial curve]"}, {"smiles": "Nc1nnc(SCc2cn3cc(Cl)ccc3n2)s1", "Potency": "inactive"}, {"smiles": "Cc1ccc2nccc(C(=O)N3CCCC(Nc4ccc(C)c(C)c4)C3)c2c1", "note": "(centres undefined)", "Potency": "inconclusive [inhibitor, full curve]"}, {"smiles": "COc1ccc(-n2c(Cc3cccn3C)nnc2SCC(=O)NC2CCCC2)cc1", "Potency": "inconclusive [inhibitor, partial curve]"}, {"smiles": "COc1ccc(C2=NCC(=O)N(CC(=O)NCc3ccco3)c3sc4c(c32)CCCC4)cc1OC", "Potency": "active: 22.4 µM"}, {"smiles": "COc1ccc(NC(=S)NC(=O)C2CCC2)cc1", "Potency": "inconclusive [inhibitor, partial curve]"}, {"smiles": "CC(=O)c1ccc(NC(=O)C2CCCN(S(=O)(=O)c3ccc4c(c3)CCCN4C(C)=O)C2)cc1", "note": "(centres undefined)", "Potency": "inactive"}, {"smiles": "O=C1CC(N2CCN(c3ccccc3)CC2)C(=O)N1c1cccc(Cl)c1", "note": "(centres undefined)", "Potency": "inconclusive [inhibitor, partial curve]"}, {"smiles": "CCC(=NCc1cccnc1)c1c(O)n(Cc2ccccc2)c(=O)[nH]c1=O", "Potency": "inconclusive [inhibitor, partial curve]"}, {"smiles": "Cc1cc(C)c2[nH]c(=O)c(C(c3nnnn3Cc3ccc4c(c3)OCO4)N3CCCC3)cc2c1", "note": "(centres undefined)", "Potency": "active: 15.8 µM"}, {"smiles": "COc1ccccc1NC(=S)NCc1ccc(F)cc1", "Potency": "inconclusive [inhibitor, partial curve, poor fit]"}, {"smiles": "COC(=O)C1=C(C)N(c2cc(Cl)cc(Cl)c2)C(=O)C1", "Potency": "inconclusive [inhibitor, full curve]"}, {"smiles": "CCOc1cc(CNc2ncnc3nc[nH]c23)ccc1OC", "Potency": "inactive"}, {"smiles": "CCOC(=O)C1=C(c2ccc(OC)cc2)OC(N)=C(C#N)C1c1cccnc1", "note": "(centres undefined)", "Potency": "active: 11.2 µM"}, {"smiles": "COc1ccc(-c2c(C)nn3c4c(cnc23)C(=O)CC(c2ccccc2)C4)cc1", "note": "(centres undefined)", "Potency": "inactive"}, {"smiles": "CCC(=O)N1CCN(CCN=CC2=C(O)CC(c3cccs3)CC2=O)CC1", "note": "(centres undefined)", "Potency": "inconclusive [inhibitor, partial curve]"}, {"smiles": "COc1ccc(/C=N/Nc2ncnc(Cl)c2N)cc1OC", "Potency": "inconclusive [inhibitor, partial curve]"}, {"smiles": "O=C(NCc1ccc(S(=O)(=O)Nc2ccccc2Cl)s1)c1ccccc1", "Potency": "inactive"}, {"smiles": "CCCN1CCCc2ccccc21", "Potency": "inconclusive [inhibitor, single point]"}, {"smiles": "O=C(NCc1ccco1)c1cccc(Br)c1", "Potency": "inconclusive [inhibitor, partial curve]"}, {"smiles": "Cc1ccc(CCNC(=O)C2CCN(S(=O)(=O)c3cccc4nonc34)CC2)cc1", "Potency": "inconclusive [inhibitor, partial curve]"}, {"smiles": "C=CCn1c(NS(=O)(=O)c2ccccc2)c(S(=O)(=O)c2ccc(C)cc2)c2nc3ccccc3nc21", "Potency": "inconclusive [inhibitor, partial curve]"}, {"smiles": "CC1=NOC(=O)/C1=C\\c1ccc(-c2ccccc2Br)o1", "Potency": "inconclusive [inhibitor, full curve]"}, {"smiles": "O=[N+]([O-])c1cc(S(=O)(=O)CCCN2CCOCC2)ccc1F", "Potency": "active: 7.08 µM"}, {"smiles": "COC(=O)c1ccc(NC(=O)C(=O)NCCc2sc(-c3cccc(F)c3)nc2C)cc1", "Potency": "inactive"}, {"smiles": "Cc1cccc(Nc2nc(N)c(C#N)c(CC#N)c2C#N)c1", "Potency": "inconclusive [inhibitor, partial curve]"}, {"smiles": "O=C(O)/C=C/C(=O)N1N=C(c2ccco2)CC1c1ccco1", "note": "(centres undefined)", "Potency": "inconclusive [inhibitor, single point]"}]}]}
